# Test results: the supplement of paper PMC6531468
# The other results are listed elsewhere or left out. Values come from read counts of a selection and are noisy. Each score is taken over the longer molecules that contain the sequence shown.
# Columns and labels:
# Assay in all cases: 6-mer SELEX enrichment z-score vs GST control; IMP3 is the RNA-binding protein IGF2BP3; higher = more enriched by binding
# IMP3 KH1-4 = settings: construct: KH1-4 (164-579); SELEX round: R4
# Experimental: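 SELEX-seq with GST-tagged IMP3 KH1-4 (Pro164-Lys579) and an N40 RNA pool, round 4. 6-mer z-score of sequence-tag enrichment normalised to the corresponding GST SELEX round; RNA k-mers written as DNA (T for U).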
# IMP3 RRM1-2 = settings: construct: RRM1-2 (1-163); SELEX round: R2
# Chain of IMP3 RRM1-2 (chain, as listed by the source): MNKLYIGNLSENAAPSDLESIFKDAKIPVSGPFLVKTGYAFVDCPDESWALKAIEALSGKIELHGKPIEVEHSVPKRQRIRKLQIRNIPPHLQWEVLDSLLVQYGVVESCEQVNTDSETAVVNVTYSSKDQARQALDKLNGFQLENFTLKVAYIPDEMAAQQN
# Experimental: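 SELEX-seq with GST-tagged IMP3 RRM1-2 (Met1-Asn163) and an N40 RNA pool, round 2. 6-mer enrichment z-score normalised to GST SELEX. RNA written as DNA (T = U).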
# IMP3 full-length = IMP3 full-length (UniProt O00425); settings: construct: FL IMP3 (1-579); SELEX round: R4
# Chain of UniProt O00425 (O00425 whole entry): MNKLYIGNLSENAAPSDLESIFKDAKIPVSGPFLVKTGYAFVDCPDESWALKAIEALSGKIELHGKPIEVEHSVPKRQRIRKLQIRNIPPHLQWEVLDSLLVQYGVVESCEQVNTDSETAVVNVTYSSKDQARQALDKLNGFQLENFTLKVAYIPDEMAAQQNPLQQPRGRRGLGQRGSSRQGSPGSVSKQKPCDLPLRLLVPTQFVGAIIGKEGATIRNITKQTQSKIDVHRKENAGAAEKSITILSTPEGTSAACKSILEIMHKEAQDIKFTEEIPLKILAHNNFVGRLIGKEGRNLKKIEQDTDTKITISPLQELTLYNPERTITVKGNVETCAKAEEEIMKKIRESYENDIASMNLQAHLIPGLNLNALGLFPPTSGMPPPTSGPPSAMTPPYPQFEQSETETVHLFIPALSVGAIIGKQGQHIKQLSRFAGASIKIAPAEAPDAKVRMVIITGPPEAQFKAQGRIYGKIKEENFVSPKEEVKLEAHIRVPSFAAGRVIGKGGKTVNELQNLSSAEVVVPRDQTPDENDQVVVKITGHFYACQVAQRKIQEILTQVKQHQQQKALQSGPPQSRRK
# Experimental: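 SELEX-seq with GST-tagged full-length IMP3 and an N40 RNA pool, round 4. Each 6-mer is scored as an enrichment z-score of sequence tags containing it, normalised to the matching GST SELEX round. RNA written as DNA (T = U).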
# IMP3 KH1-2 = settings: construct: KH1-2 (164-376); SELEX round: R4
# Chain of IMP3 KH1-2 (chain, as listed by the source): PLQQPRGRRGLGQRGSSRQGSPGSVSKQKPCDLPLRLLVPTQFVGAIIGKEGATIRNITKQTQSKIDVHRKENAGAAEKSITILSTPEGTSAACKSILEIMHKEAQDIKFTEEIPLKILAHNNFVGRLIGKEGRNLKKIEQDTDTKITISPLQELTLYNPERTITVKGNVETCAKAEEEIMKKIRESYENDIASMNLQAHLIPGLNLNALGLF
# Experimental: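 SELEX-seq with GST-tagged IMP3 KH1-2 (Pro164-Phe376) and an N40 RNA pool, round 4 (stringent 300/600 mM KCl washes). 6-mer z-score of sequence-tag enrichment normalised to the corresponding GST SELEX round; RNA k-mers written as DNA (T for U).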
# IMP3 KH3-4 = settings: construct: KH3-4 (377-579); SELEX round: R4
# Chain of IMP3 KH3-4 (chain, as listed by the source): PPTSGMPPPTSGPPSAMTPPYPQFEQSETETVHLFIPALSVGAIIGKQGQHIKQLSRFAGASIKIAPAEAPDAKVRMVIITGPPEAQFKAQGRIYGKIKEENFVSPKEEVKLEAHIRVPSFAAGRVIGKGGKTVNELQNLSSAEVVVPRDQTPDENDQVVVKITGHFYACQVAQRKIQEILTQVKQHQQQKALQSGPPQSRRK
# Experimental: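 SELEX-seq with GST-tagged IMP3 KH3-4 (Pro377-Lys579) and an N40 RNA pool, round 4. 6-mer z-score of sequence-tag enrichment normalised to the corresponding GST SELEX round; RNA k-mers written as DNA (T for U).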
# Chain of IMP3 KH1-4 (chain, as listed by the source): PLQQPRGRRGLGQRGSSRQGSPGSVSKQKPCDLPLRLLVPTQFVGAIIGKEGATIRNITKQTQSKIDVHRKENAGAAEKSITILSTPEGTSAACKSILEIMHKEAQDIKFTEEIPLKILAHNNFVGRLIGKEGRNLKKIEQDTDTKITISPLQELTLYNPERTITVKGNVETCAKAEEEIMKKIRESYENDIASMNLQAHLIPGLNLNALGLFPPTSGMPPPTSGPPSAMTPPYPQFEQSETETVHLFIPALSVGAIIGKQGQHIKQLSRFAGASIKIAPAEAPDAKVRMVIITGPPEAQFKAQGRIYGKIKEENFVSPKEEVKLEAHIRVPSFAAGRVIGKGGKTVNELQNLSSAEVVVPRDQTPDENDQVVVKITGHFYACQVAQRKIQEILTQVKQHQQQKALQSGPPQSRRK
Sequence,6-mer SELEX enrichment z-score (IMP3 KH1-4),6-mer SELEX enrichment z-score (IMP3 RRM1-2),6-mer SELEX enrichment z-score (IMP3 full-length),6-mer SELEX enrichment z-score (IMP3 KH1-2),6-mer SELEX enrichment z-score (IMP3 KH3-4)
CTCCTT,0.65,0.189,0,0.628,0.307
CTAGTT,-0.201,0.333,-0.122,-0.202,-0.081
GTCCGA,-0.985,-0.322,-0.242,-0.873,-0.896
GAGGTC,0.334,-0.016,0.586,0.334,0.362
ACTGGA,0.133,-0.502,-0.393,-0.058,-0.096
CATGGG,0.429,0.61,0.779,0.426,0.571
ACTTTG,0.064,-0.002,-0.273,0.001,0.112
CCAAAT,-1.03,-0.896,-1.47,-0.941,-1.26
TACACT,1.29,0.703,0.659,1.47,0.856
TACCTG,-1.31,-0.422,-1.06,-1.16,-1.24
TCAATC,0.43,1.96,1.09,0.352,0.099
ATACGT,0.274,-0.034,-0.063,-0.035,0.228
CGACCT,-1.21,-0.663,-1.01,-1.02,-1.3
GCACAT,2.48,1.57,2.96,2.1,2.12
TACGTA,-0.239,-0.235,-0.377,-0.329,-0.148
AACGCG,-1.64,-0.689,-0.997,-1.53,-1.37
ATCCTA,-0.114,-0.3,-0.463,-0.158,-0.312
TGCTGC,0.703,0.214,0.245,0.685,0.32
CCGGTG,-0.606,-0.344,-0.096,-0.482,-0.528
TTCTGC,0.229,0.317,0.101,0.257,0.025
GGTCGT,0.018,0.356,0.296,0.076,0.183
CCTGAG,-1.92,-0.667,-1.54,-1.78,-1.86
TCTACG,-0.283,0.013,-0.127,-0.263,-0.274
AGCCAT,0.14,0.119,0.389,0.068,-0.088

Sequence,6-mer SELEX enrichment z-score (IMP3 KH1-4),6-mer SELEX enrichment z-score (IMP3 RRM1-2),6-mer SELEX enrichment z-score (IMP3 full-length),6-mer SELEX enrichment z-score (IMP3 KH1-2),6-mer SELEX enrichment z-score (IMP3 KH3-4)
TTACGA,-0.008,-0.424,-0.515,-0.05,0.107
GCATAG,-0.207,0.421,0.36,-0.278,-0.083
CTGTAG,-0.327,0.058,-0.28,-0.31,-0.219
CCATGC,-0.254,0.207,0.027,-0.172,-0.658
CCGCGC,-0.946,-0.244,0.041,-0.661,-1.11
TCTTCA,0.594,0.883,0.63,0.694,0.395
TGTTGG,-0.041,0.42,0.107,0.058,0.169
AACGGC,1.16,-0.356,1.63,0.531,1.04
AACTGA,-0.211,-1.37,-1.41,-0.202,0.021
CAGCTT,-0.121,0.301,0.208,-0.01,-0.119
GCCGCT,0.171,0.076,0.282,0.323,-0.005
ACCACT,0.191,1.05,-0.189,0.194,-0.337
GTCACC,-0.246,0.082,0.152,-0.448,-0.797
CATCCA,0.515,1.3,1,0.4,-0.408
TGACTA,0.129,-0.433,-0.518,0.127,0.399
CCACCC,-1.19,-0.984,-1.42,-1.17,-2.16
ACAACT,0.646,0.396,0.112,0.848,0.402
GCGAAT,-0.51,-0.431,-0.277,-0.525,-0.294
TAGGGC,-0.197,0.395,0.228,-0.04,0.173
GGGTAG,-0.118,0.308,0.152,0.132,0.195
GTCTAT,0.163,0.345,0.156,0.1,0.286
TTCGGA,0.032,0.096,0.024,-0.088,0.256
GATCGA,-1.02,-0.584,-0.496,-1.01,-0.823
TTTCTG,0.424,0.35,0.179,0.538,0.467

Sequence,6-mer SELEX enrichment z-score (IMP3 KH1-4),6-mer SELEX enrichment z-score (IMP3 RRM1-2),6-mer SELEX enrichment z-score (IMP3 full-length),6-mer SELEX enrichment z-score (IMP3 KH1-2),6-mer SELEX enrichment z-score (IMP3 KH3-4)
CCTTGG,-0.562,0.19,-0.103,-0.41,-0.552
AAGTCA,0.281,-0.044,0.139,-0.073,0.155
AAGCAC,-0.104,0.533,0.264,-0.329,-0.344
CCGTAT,-0.091,-0.202,-0.126,-0.017,-0.146
GGAATG,0.974,-0.6,-0.095,0.666,1.07
CTTACC,-0.757,-0.303,-0.837,-0.721,-1.01
ATCCGC,-0.019,-0.076,0.027,0.182,-0.628
AGTTGT,-0.171,0.197,-0.242,-0.235,-0.069
AGAATA,1.31,-1,-0.297,1.13,2.29
AATTTA,1.51,-0.395,0.072,1.42,2.73
ACCACA,0.118,2.44,0.493,0.473,-0.773
TGGCAC,1.05,0.569,1.54,0.703,0.788
CACATT,2.47,2.31,2.58,2.62,2.05
GAGCGC,-4.78,-0.412,-2.62,-4.44,-4.31
GTTTAC,-0.149,0.158,-0.159,-0.13,-0.049
CGTGAT,0.052,-0.201,-0.222,-0.136,0.024
CGCGCC,-0.476,-0.273,0.301,-0.333,-0.81
GTGTTA,-0.193,0.129,-0.256,-0.231,-0.006
CCGAAA,-2.48,-2.52,-2.33,-2.08,-2.42
TGCTCG,-0.544,0.26,0.056,-0.34,-0.304
AGGGCA,1.03,0.271,1.52,0.947,1.23
GGTGTC,-0.457,0.524,0.102,-0.313,-0.248
CGCAAG,-0.51,-0.088,0.008,-0.403,-0.483
TCATTG,0.442,0.935,0.896,0.294,0.379

Sequence,6-mer SELEX enrichment z-score (IMP3 KH1-4),6-mer SELEX enrichment z-score (IMP3 RRM1-2),6-mer SELEX enrichment z-score (IMP3 full-length),6-mer SELEX enrichment z-score (IMP3 KH1-2),6-mer SELEX enrichment z-score (IMP3 KH3-4)
CGTTCA,0.015,0.597,0.586,0.071,-0.153
AAATAT,1.61,-0.902,-0.33,1.4,2.78
ATGGGA,0.928,-0.204,0.201,0.655,0.958
ACTTCC,0.473,-0.01,-0.532,0.403,-0.31
TAAAGA,0.424,-1.55,-0.985,0.24,1.4
TATAGT,0.75,0.273,0.216,0.513,0.849
GGTCAC,-0.034,0.197,0.533,-0.117,-0.171
CGACAT,-0.128,0.17,0.567,-0.214,-0.396
ATTGGC,0.344,0.286,0.42,0.209,0.358
ATCAGA,0.601,1.36,1.33,0.611,0.691
CTACGT,-0.354,-0.042,-0.231,-0.288,-0.275
TTAGTC,0.355,0.433,0.208,0.204,0.355
CCGTTG,-0.458,-0.242,-0.284,-0.378,-0.588
CCTCCC,-0.477,-0.693,-1.06,-0.211,-1.3
TCTTTT,0.814,0.559,0.459,0.782,0.878
CTTAAG,-0.281,-0.023,-0.441,-0.291,-0.028
TATTTG,0.733,0.302,0.036,0.55,1.03
TCCCCA,-0.374,-0.537,-0.646,-0.411,-1.28
TTGGGT,-0.033,0.629,0.224,0.099,0.269
ATTCAG,0.872,1.24,1.28,0.793,0.812
ATTAGC,0.519,0.179,0.126,0.355,0.555
TGAGGT,0.12,0.145,0.202,0.148,0.349
GATATC,-0.153,-0.02,-0.165,-0.167,-0.113
CCGCAG,-0.187,0.047,0.363,-0.017,-0.505

Sequence,6-mer SELEX enrichment z-score (IMP3 KH1-4),6-mer SELEX enrichment z-score (IMP3 RRM1-2),6-mer SELEX enrichment z-score (IMP3 full-length),6-mer SELEX enrichment z-score (IMP3 KH1-2),6-mer SELEX enrichment z-score (IMP3 KH3-4)
GCAAGA,0.207,-0.458,0.138,0.096,0.397
TGTCCA,0.162,0.009,-0.228,-0.051,-0.27
CTTATG,0.333,0.117,-0.21,0.197,0.445
AGCACC,-0.509,0.203,0.439,-0.535,-1.02
TATAAG,0.947,-0.179,0.032,0.72,1.5
TCAGAC,-0.049,0.929,0.445,0.049,-0.237
GCTTAG,-0.447,0.224,-0.236,-0.334,-0.154
CTGGTG,-0.227,0.191,-0.103,-0.161,-0.158
GGTAGT,-0.141,0.407,0.054,-0.085,0.086
GAATAA,1.3,-1.63,-0.728,1,2.51
AACTCG,-1.74,-0.477,-0.98,-1.6,-1.68
GTGTTT,-0.17,0.461,-0.114,-0.099,0.071
GGCGTA,-1.92,0.017,-0.713,-1.76,-1.56
TTCGTT,0.215,0.467,0.087,0.213,0.297
CGGTAT,-0.271,0.259,-0.028,-0.264,-0.115
ACAGGC,1.3,1.16,2.21,1.07,1.1
TGGTTA,-0.227,0.379,-0.181,-0.226,-0.084
ATACCC,-1.36,-0.57,-1.18,-1.34,-1.87
TTAAAC,0.614,-0.78,-0.714,0.502,1.18
GGGCTG,0.101,0.162,0.452,0.334,0.394
CTAAGT,-0.137,-0.093,-0.308,-0.145,-0.054
AATCTG,-0.058,-0.236,-0.203,-0.03,-0.192
CCGCAC,0.515,0.34,0.873,0.792,-0.471
GAGTCC,-0.141,-0.417,0.114,-0.156,-0.375
